Measured values from the supplement of paper PMC8728848.
The other results are listed elsewhere or left out.

Tests used:
Experiment in all cases: glycan array binding signal (z-score within array); higher = stronger binding
Conditions in all cases: glycan notation: IUPAC condensed, linker removed
[1] = target: Neu5Ac(a2-6)Gal(b1-4)GlcNAc(b1-6)[Gal(b1-3)]GalNAc
Method in brief: (§1)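 Negative Z-scores can be read as non-binding. The Z-score is calculated within each array and then averaged across arrays of one protein sequence at different concentrations or buffers and across linkers. Arrays, 3228 in all, were curated from the Consortium for Functional Glycomics database and kept only where the protein sequence was available.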

[2] = target: Neu5Ac(a2-6)Gal(b1-4)GlcNAc6S
Method in brief: as §1

Neu5Ac(a2-6)GalNAc = target: Neu5Ac(a2-6)GalNAc
Method in brief: as §1

[3] = target: Neu5Ac(a2-6)GalNAc(b1-4)GlcNAc
Method in brief: as §1

[4] = target: Neu5Ac(a2-6)GalNAc(b1-4)GlcNAc6S
Method in brief: as §1

[5] = target: Neu5Ac(a2-6)GlcNAc(b1-4)GlcNAc
Method in brief: as §1

[6] = target: Neu5Ac(a2-6)GlcNAc(b1-4)GlcNAc(b1-4)GlcNAc
Method in brief: as §1

Neu5Ac(a2-8)Neu5Ac = target: Neu5Ac(a2-8)Neu5Ac
Method in brief: as §1

[7] = target: Neu5Ac(a2-8)Neu5Ac(a2-3)Gal(b1-3)GalNAc(b1-4)[Neu5Ac(a2-3)]Gal(b1-4)Glc
Method in brief: as §1

[8] = target: Neu5Ac(a2-8)Neu5Ac(a2-3)Gal(b1-3)GalNAc(b1-4)[Neu5Ac(a2-8)Neu5Ac(a2-3)]Gal(b1-4)Glc
Method in brief: as §1

[9] = target: Neu5Ac(a2-8)Neu5Ac(a2-3)Gal(b1-4)Glc
Method in brief: as §1

[10] = target: Neu5Ac(a2-8)Neu5Ac(a2-3)Gal(b1-4)GlcNAc
Method in brief: as §1

[11] = target: Neu5Ac(a2-8)Neu5Ac(a2-3)[Gal(b1-3)GalNAc(b1-4)]Gal(b1-4)Glc
Method in brief: as §1

[12] = target: Neu5Ac(a2-8)Neu5Ac(a2-3)[GalNAc(b1-4)]Gal(b1-4)Glc
Method in brief: as §1

[13] = target: Neu5Ac(a2-8)Neu5Ac(a2-8)Neu5Ac
Method in brief: as §1

[14] = target: Neu5Ac(a2-8)Neu5Ac(a2-8)Neu5Ac(a2-3)Gal(b1-4)Glc
Method in brief: as §1

[15] = target: Neu5Ac(a2-8)Neu5Ac(a2-8)Neu5Ac(a2-3)[Gal(b1-3)GalNAc(b1-4)]Gal(b1-4)Glc
Method in brief: as §1

[16] = target: Neu5Ac(a2-8)Neu5Ac(a2-8)Neu5Ac(a2-3)[GalNAc(b1-4)]Gal(b1-4)Glc
Method in brief: as §1

[17] = target: Neu5Ac(a2-8)Neu5Ac(a2-8)Neu5Ac(a2-8)Neu5Ac(a2-3)[GalNAc(b1-4)]Gal(b1-4)Glc
Method in brief: as §1

[18] = target: Neu5Ac(a2-8)Neu5Gc(a2-3)Gal(b1-4)GlcNAc
Method in brief: as §1

[19] = target: Neu5Ac(b2-6)Gal(b1-4)GlcNAc
Method in brief: as §1

Neu5Ac(b2-6)GalNAc = target: Neu5Ac(b2-6)GalNAc
Method in brief: as §1

[20] = target: Neu5Ac9Ac(a2-3)Gal(b1-3)GlcNAc
Method in brief: as §1

[21] = target: Neu5Ac9Ac(a2-3)Gal(b1-4)GlcNAc
Method in brief: as §1

[22] = target: Neu5Ac9Ac(a2-6)Gal(b1-4)GlcNAc
Method in brief: as §1

[23] = target: Neu5Gc(a2-3)Gal(b1-3)GlcNAc
Method in brief: as §1

[24] = target: Neu5Gc(a2-3)Gal(b1-3)[Fuc(a1-4)]GlcNAc
Method in brief: as §1

Neu5Gc(a2-3)Gal(b1-4)Glc = target: Neu5Gc(a2-3)Gal(b1-4)Glc
Method in brief: as §1

[25] = target: Neu5Gc(a2-3)Gal(b1-4)GlcNAc
Method in brief: as §1

[26] = target: Neu5Gc(a2-3)Gal(b1-4)GlcNAc(b1-3)Gal(b1-4)GlcNAc(b1-2)Man(a1-3)[Neu5Gc(a2-3)Gal(b1-4)GlcNAc(b1-3)Gal(b1-4)GlcNAc(b1-2)Man(a1-6)]Man(b1-4)GlcNAc(b1-4)GlcNAc
Method in brief: as §1

[27] = target: Neu5Gc(a2-3)Gal(b1-4)[Fuc(a1-3)]GlcNAc
Method in brief: as §1

[28] = target: Neu5Gc(a2-6)Gal(b1-4)GlcNAc
Method in brief: as §1

Neu5Gc(a2-6)GalNAc = target: Neu5Gc(a2-6)GalNAc
Method in brief: as §1

[29] = target: Neu5Gc(a2-8)Neu5Ac(a2-3)Gal(b1-4)GlcNAc
Method in brief: as §1

[30] = target: Neu5Gc(a2-8)Neu5Gc(a2-3)Gal(b1-4)GlcNAc
Method in brief: as §1

[31] = target: Neu5Gc(a2-8)Neu5Gc(a2-3)Gal(b1-4)GlcNAc(b1-3)Gal(b1-4)GlcNAc
Method in brief: as §1

[32] = target: Neu5Gc(a2-8)Neu5Gc(a2-6)Gal(b1-4)GlcNAc
Method in brief: as §1

[33] = target: Neu5Gc(b2-6)Gal(b1-4)GlcNAc
Method in brief: as §1

B1: FimA-N3 (Actinomyces oris) (protein)
chain: MHHHHHHSSGVDLGTENLYFQSNAGLQGAQFQLYKAKNAYANTCSNEKEGAPIAINGQTTLTTDAQGAIDIKGLFISDSIDGADRDNQVNAMERCYVLVETKAPAGYVLPAGNGAATPVKVKAGEETTDN
glycan array binding signal (z-score) [1]: 0.503
glycan array binding signal (z-score) [2]: 0.383
glycan array binding signal (z-score) (Neu5Ac(a2-6)GalNAc): -0.189
glycan array binding signal (z-score) [3]: -0.44
glycan array binding signal (z-score) [4]: -0.087
glycan array binding signal (z-score) [5]: -0.185
glycan array binding signal (z-score) [6]: 2.65
glycan array binding signal (z-score) (Neu5Ac(a2-8)Neu5Ac): -0.246
glycan array binding signal (z-score) [7]: -0.39
glycan array binding signal (z-score) [8]: -0.142
glycan array binding signal (z-score) [9]: -0.606
glycan array binding signal (z-score) [10]: -0.444
glycan array binding signal (z-score) [11]: -0.46
glycan array binding signal (z-score) [12]: -0.272
glycan array binding signal (z-score) [13]: -0.564
glycan array binding signal (z-score) [14]: 1.78
glycan array binding signal (z-score) [15]: -0.224
glycan array binding signal (z-score) [16]: -0.132
glycan array binding signal (z-score) [17]: 0.506
glycan array binding signal (z-score) [18]: -0.448
glycan array binding signal (z-score) [19]: -0.299
glycan array binding signal (z-score) (Neu5Ac(b2-6)GalNAc): -0.344
glycan array binding signal (z-score) [20]: 0.189
glycan array binding signal (z-score) [21]: -0.758
glycan array binding signal (z-score) [22]: -0.706
glycan array binding signal (z-score) [23]: -0.37
glycan array binding signal (z-score) [24]: -0.336
glycan array binding signal (z-score) (Neu5Gc(a2-3)Gal(b1-4)Glc): -0.378
glycan array binding signal (z-score) [25]: 0.031
glycan array binding signal (z-score) [26]: 0.801
glycan array binding signal (z-score) [27]: -0.363
glycan array binding signal (z-score) [28]: -0.544
glycan array binding signal (z-score) (Neu5Gc(a2-6)GalNAc): -0.145
glycan array binding signal (z-score) [29]: -0.164
glycan array binding signal (z-score) [30]: -0.385
glycan array binding signal (z-score) [31]: 0.032
glycan array binding signal (z-score) [32]: -0.391
glycan array binding signal (z-score) [33]: -0.15
